Test results: PubChem BioAssay AID1347073 (National Center for Advancing Translational Sciences (NCATS), 2019)
The campaign covered roughly 45,000 compounds. About 200 (0.44%) were called active. Another 7% or so got no clear call; they are omitted. The call rests on the fitted dose curve; in most records, active means well fitted activation curve with a large enough effect; inconclusive means small, poorly fitted or top-dose-only effect; inactive means no such curve, though single readings can be large or run the other way. The list shows a part of the results.

assay: qHTS of TDP-43 Inhibitors: NCGC Sytravon Library Screen; settings: yeast TDP-43 toxicity rescue, BacTiter-Glo growth, 24 h; series mostly up to 46.1 µM; growth rescue (activation): at the top concentration; further: 0% is about no effect; nearly all actives have a fitted effect of over 55% in size
How it was run: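 TDP-43-expressing yeast, pregrown in raffinose, seeded at OD600 0.02 in galactose medium with compound for 24 hr at 30 deg C. Growth read by BacTiter-Glo luminescence, so rescue of toxicity appears as activation.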

Compound	growth rescue (activation)
COC(=O)c1ccc(C)c(NC(=O)CCCN2C(=O)CN(C)C2=O)c1	inactive: 0.124%
COc1ccc(C2OCC3(CO2)SC(=O)NC3=O)cc1OC (stereo not given)	inactive: 1.22%
COc1ccccc1C(CNc1ncnc2sc(C)c(C)c12)N(C)C (stereo not given)	inactive: -1.91%
Cc1cc(SCC(=O)N2CCCC2=O)nc2ccccc12	inactive: 25.3%
COC(=O)c1c(NC(=O)/C(C#N)=C/c2ccc(OC)cc2)sc2c1C(C(=O)OC)CC2 (stereo not given)	inactive: -3.26%
CCC/C(O)=C1\C(=O)CC(C)(C)CC1=NCc1ccccc1	inactive: 11.2%
C/C=C(\C)CN1CCCC(CO)(Cc2ccccc2)C1 (stereo not given)	inactive: 2.36%
CCc1ccc(N(CC(=O)NCc2ccc(F)cc2)C(=O)c2csnn2)cc1	inactive: -2.82%
CC(C)NC(=S)NC1(C)CCS(=O)(=O)C1 (stereo not given)	inactive: -11%
N#CC(C#N)=Cc1ccc(NC(=O)c2ccc(Br)cc2)cc1	inactive: 21.3%
CC(=O)c1cc2c(cc1N/C(=N/S(=O)(=O)c1ccc(C)cc1)c1ccc(Cl)cc1)OCO2	inactive: 1.68%
CC(C)(C)NC(=O)CN(c1cccc([N+](=O)[O-])c1)S(=O)(=O)c1ccccc1	inactive: 5.44%
O=C(CSc1nccc(=O)[nH]1)Nc1ccc(F)c([N+](=O)[O-])c1	inactive: 19.3%
CCN1CCN(c2ccc(NC(=O)c3cccc(N4CCCC4=O)c3)cc2)CC1	inactive: -0.0349%
CC[C@H](C)[C@H](NC(=O)c1ccc(Cl)cc1)C(=O)OCC(=O)c1c(N)n(C)c(=O)n(C)c1=O	inactive: 10.9%
O=C(CCCC(=O)N(CC(=O)NC1CCCCC1)c1ccccc1F)Nc1ccccn1	inactive: -3.61%
CCNC(=O)C1(C)CCCN(C(=O)c2cccnc2Oc2ccccc2)C1 (stereo not given)	inactive: -4.12%
N/C(=N/OC(=O)c1ccccc1Cl)c1nonc1N	inactive: -10.5%
Cc1cc(=O)[nH]c(SCC(=O)N2CCN(c3ccccc3)CC2)n1	inactive: 5.08%
CC(=O)c1cccc(NC(=S)N2CCN(S(=O)(=O)c3ccccc3)CC2)c1	inactive: 3.55%
CCOC(=O)CCC(NC(=O)CCC(=O)NC(CCC(=O)OCC)C(=O)OCC)C(=O)OCC (stereo not given)	inactive: -1.61%
O=C(Nc1ccccc1)N1CCCN(Cc2ccccc2F)C1	inactive: 15.4%
COc1ccc(CCNC(=O)CCCOc2ccc(C)cc2)cc1OC	inactive: -1.11%
CN(C)S(=O)(=O)c1ccc(-c2csc(N/N=C/c3ccc(O)cc3)n2)cc1	inactive: -14.5%

Compound	growth rescue (activation)
CCOc1cccc(C(=O)NC(=S)Nc2cccc(NC(=O)c3ccccc3Cl)c2)c1	inactive: -4.72%
COC(=O)c1c(NC(=S)Nc2ccc(CC(=O)O)cc2)sc(C)c1C	inactive: 32.6%
CCC(C)NC(=O)Cn1cnc2sc(C)c(S(=O)(=O)N3CCN(c4ccccc4OC)CC3)c2c1=O (stereo not given)	inactive: -12.9%
O=C(NNC(=O)C12CC3CC(CC(C3)C1)C2)c1cccc(O)c1	inactive: -8.07%
COC(=O)c1ccc(Cn2nc(-c3cc(C)ccc3C)ccc2=O)cc1	inactive: 36%
O=C(c1ccc(CN2CCc3ccccc3C2)cc1)N1CCN(c2ccc(F)cc2)CC1	inactive: 24%
COc1ccccc1NS(=O)(=O)c1ccc(N2CCOCC2)c(N)c1	inactive: 8.6%
Cc1cc([N+](=O)[O-])ccc1NC(=O)CSc1nncn1-c1cccnc1	inactive: 6.83%
Cc1noc(C)c1COc1ncnc2ccccc12	inactive: 0.584%
COc1ccc(NC(=O)CSc2nnc(C)n2C2CCCCC2)cc1	inactive: 0.609%
Cc1ccc(/C=N/NC(=O)Cc2cccs2)o1	inactive: 6.31%
COc1cc(/C=N/NC(=O)Cc2csc(N3CCOCC3)n2)cc(OC)c1O	inactive: -14.8%
COc1ccccc1CC(=O)Nc1ccc2c(c1)OC1(CCCC1)O2	inactive: 6.47%
CCN(CC)CCNC(=O)c1cc2c(-c3cccc(OC)c3)nn(C)c2s1	inactive: 9.95%
COc1cc(/C=C/C(=O)O)ccc1OCc1ccc([N+](=O)[O-])cc1	inactive: 4.63%
O=C(CCSc1ccccc1)N1CCN(c2ccccc2F)CC1	inactive: 25.5%
COc1cc(/C=N/NC(=O)CC(=O)NC2CCCCC2)ccc1O	inactive: 5.17%
CCOC(=O)c1c(CSc2ccccc2)n(C)c2cc(Br)c(O)c(CN(C)C)c12	inactive: 14.7%
COCCNC(=O)C1CCCN(C(=O)c2cc(C)n(C(C)(C)C)n2)CC1 (stereo not given)	inactive: 12.4%
COc1ccc2c(c1)nc(NCCCO)n2Cc1ccccc1	inactive: 0.298%
O=C(COC(=O)/C=C/c1ccccc1)NCc1ccccc1Cl	inactive: 27.4%
CS(=O)(=O)NCCSCc1c(F)cccc1Cl	inactive: -3.38%
Cc1nn(-c2ccccc2)c2sc(C(=O)c3c(N)n(C)c(=O)n(C)c3=O)cc12	inactive: 26.7%
CC(O)(c1cccc(F)c1)c1nc(-c2csc3ccccc23)cs1 (stereo not given)	inactive: -37.6%

Compound	growth rescue (activation)
CCCCNC(=O)c1nn2c(C(F)(F)F)cc(-c3ccccc3)nc2c1Br	inactive: 9.46%
CC(C)(C)C(=O)NC(=S)Nc1ccc(S(=O)(=O)Nc2nccs2)cc1	inactive: -15.9%
Cn1cnnc1SC1c2cccc3cccc(c23)C1NS(=O)(=O)c1ccccc1 (stereo not given)	inactive: -8.47%
Cc1ccccc1/C(N)=N/O	inactive: 7.78%
COC(=O)[C@H](C)NC(=O)/C=C/c1ccc(OC)cc1	inactive: 2.22%
O=C(Nc1ccc(-n2cnnn2)cc1)c1cn2ccccc2n1	inactive: -12.9%
CCOc1ccccc1/C=C(\C#N)C1=CCCC1	inactive: 9.85%
O=C(O)c1c2c(nc3ccccc13)-c1ccccc1CC2	inactive: 5.27%
COc1ccccc1N(CC(=O)NC1CCCC1)S(=O)(=O)c1ccc(C)cc1	inactive: 13.5%
CCN1CCN(c2ccc(NC(=O)c3ccc(Cl)c(N4CCCC4=O)c3)cc2)CC1	inactive: 7.78%
CCc1cc(=O)oc2c(CNC(Cc3ccccc3)C(=O)O)c(O)ccc12 (stereo not given)	inactive: 4.76%
CCC(CC)c1nnc(NC(=O)CCc2ccccc2)s1	inactive: 15.8%
Cc1cc2ccccc2c(=O)n1CC(=O)NC1CCCCCC1	inactive: 32.9%
COc1ccc(NC(=O)C2CCCN(S(C)(=O)=O)C2)c(OC)c1 (stereo not given)	inactive: 0.662%
CCCCNC(=S)N/N=C/c1cc(C)ccc1C	inactive: -11.2%
COc1cc(OC)cc(C(=O)Nc2nc3ccc(S(C)(=O)=O)cc3s2)c1	inactive: 13.8%
COc1ccc([N+](=O)[O-])cc1NC(=O)COC(=O)/C=C/c1ccco1	inactive: 27.5%
CN(Cc1ccccc1)C(=O)CSc1nc2ccccc2[nH]1	inactive: 27.4%
CSc1nsc2nc(=O)c(/C=C3\C(C)=Nc4ccccc43)c(N)n12	inactive: -2.87%
COc1ccccc1Oc1ncnc2c1oc1ccccc12	inactive: 5.25%
CCC(C)c1ccc(-n2c(=O)c3ccccc3n3c(=S)[nH]nc23)cc1 (stereo not given)	inactive: 12%
Cc1ccc(CNC(=O)C(c2ccccc2)c2ccccc2)cc1	inactive: 9.27%
